According to PubChem BioAssay AID2147 (National Center for Advancing Translational Sciences (NCATS), 2009):
The campaign covered roughly 230,000 compounds. About 3,600 (1.6%) were called active. This list was built around the results that the source calls inconclusive (neither active nor inactive); the mix of calls is not that of the screen. Calls follow the shape of the dose curve; as a rule, active = well fitted inhibition curve with a large enough effect (not every such curve was filed as active); inconclusive = small, poorly fitted or top-dose-only effect, or another doubt; inactive = no such curve, though single readings can be large or run the other way. Where the call is inconclusive, the potency comes from a doubtful curve fit.

Biological target: Lysine-specific demethylase 4E (Homo sapiens) (UniProt B2RXH2)
Assay: qHTS Assay for Inhibitors of Human Jumonji Domain Containing 2E (JMJD2E)
Details: JMJD2E catalytic domain, FDH-coupled NADH fluorescence (FDH is formaldehyde dehydrogenase); series mostly up to 57.1 µM
Also: nearly all actives have a fitted effect of over 50% in size.
Potency is read from the fitted curve at half-maximal effect; tags tell the direction and shape of the fitted curve.

UniProt B2RXH2, sequence (B2RXH2 whole entry, looked up, the tested form may be a part): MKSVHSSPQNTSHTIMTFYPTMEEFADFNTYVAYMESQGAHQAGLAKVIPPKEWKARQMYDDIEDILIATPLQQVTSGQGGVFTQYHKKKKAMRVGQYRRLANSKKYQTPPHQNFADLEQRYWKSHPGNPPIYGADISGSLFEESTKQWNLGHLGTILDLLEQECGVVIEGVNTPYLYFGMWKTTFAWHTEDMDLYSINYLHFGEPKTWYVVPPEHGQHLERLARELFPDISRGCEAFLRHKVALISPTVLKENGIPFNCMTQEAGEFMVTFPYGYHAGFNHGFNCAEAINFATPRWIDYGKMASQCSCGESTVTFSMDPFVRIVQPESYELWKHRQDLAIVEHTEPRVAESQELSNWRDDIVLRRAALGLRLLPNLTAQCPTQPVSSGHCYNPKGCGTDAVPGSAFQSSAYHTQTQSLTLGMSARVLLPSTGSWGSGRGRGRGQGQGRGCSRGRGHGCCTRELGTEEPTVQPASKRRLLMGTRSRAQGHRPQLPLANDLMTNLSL

| Structure (SMILES) | Potency |
| --- | --- |
| O=C1NC(c2ccc(Cl)cc2)Nc2ccccc21 (stereo not drawn) | inactive |
| CCOC(=O)C(=NC1CCS(=O)(=O)C1)NNc1cc(Cl)ccc1Cl (stereo not drawn) | inconclusive: 39.8 µM [inhibitor, single point] |
| Cc1ccc(-n2c(O)c(/C=N/c3ncn[nH]3)c3ccccc3c2=O)cc1 | inconclusive: 25.1 µM [inhibitor, partial curve] |
| Clc1ccc(-c2nc3ncccn3c2Cl)cc1 | inconclusive: 14.1 µM [inhibitor, partial curve] |
| Cc1cccc(NC(=S)N(CCN2CCOCC2)Cc2cc3cc4c(cc3[nH]c2=O)OCO4)c1 | inconclusive: 31.6 µM [inhibitor, partial curve] |
| O=C1/C(=C/c2ccccn2)COc2ccccc21 | inactive |
| c1ccc2[nH]c(-c3ccnc4ccccc34)nc2c1 | inconclusive: 28.2 µM [inhibitor, partial curve] |
| Cn1nnc2c(NCc3ccco3)nccc21 | inconclusive: 31.6 µM [inhibitor, partial curve] |
| COCCn1c(SCC(=O)c2ccc3c(c2)OCCO3)nnc1C(C)C | inconclusive: 39.8 µM [inhibitor, single point] |
| CCn1c2ccccc2c2cc(NC(=O)CSc3nnc(-c4ccc(OC)c(OC)c4)n3N)ccc21 | inactive |
| CN1CCN(CC(O)c2ccccc2)CC1 (stereo not drawn) | inactive |
| CCOC(=O)c1c(NC(=O)c2ccccc2)sc2c(O)c(CN(CC)CC)ccc12 | inactive |
| O=C1NC(=NCc2ccccc2)S/C1=C/c1ccc(O)cc1 | inactive |
| CCSc1nc2c(c(=O)[nH]1)C(c1ccccn1)C1=C(CC(C)(C)CC1=O)N2 (stereo not drawn) | inconclusive: 14.1 µM [inhibitor, partial curve] |
| Cc1cccn2c(=O)c3cc(C(=O)NC(C)c4ccccc4)c(=N)n(CCCn4ccnc4)c3nc12 (stereo not drawn) | inconclusive: 28.2 µM [inhibitor, partial curve] |
| O=C(Nc1ccc2nc(-c3ccccn3)[nH]c2c1)C1CCCCC1 | inconclusive: 28.2 µM [inhibitor, partial curve] |
| O=C(NCCO)c1ccc2c3n(nc2c1)-c1ccccc1CO3 | inconclusive: 28.2 µM [inhibitor, partial curve] |
| CCN(CC)S(=O)(=O)c1ccc(C(=O)Nc2nnc(NC(=S)Nc3ccccc3)s2)cc1 | inactive |
| O=C(NC(=S)Nc1cc(C(F)(F)F)ccc1Cl)c1ccccc1 | inactive |
| COc1cc(/C=C/C(=O)c2ccc(Cl)s2)cc(OC)c1O | inactive |
| CCc1cccc(C)c1NC(=O)c1cccc(N(C)C)c1 | inconclusive: 39.8 µM [inhibitor, single point] |
| CCOC(=O)N/N=C/c1ccc(OCCSc2ccc(Cl)cc2)c(OC)c1 | inactive |
| CC(=O)N1N=C(c2ccc(Cl)cc2)OC12CCCC2 | inconclusive: 28.2 µM [inhibitor, partial curve] |
| Cc1nn(-c2ccccc2)c(C)c1/C=N/NC(=O)c1cc(-c2cccs2)[nH]n1 | inconclusive: 39.8 µM [inhibitor, single point] |
| N#CC1=C(N)NC(=S)C(C(N)=O)C1c1ccc([N+](=O)[O-])cc1 (stereo not drawn) | inconclusive: 39.8 µM [inhibitor, single point] |

| Structure (SMILES) | Potency |
| --- | --- |
| OCCC1CN(Cc2ccc3cc(Cl)ccc3n2)CCN1Cc1ccsc1 (stereo not drawn) | inactive |
| Cc1cc(=O)oc2cc(OCC(O)CN3CCc4ccccc4C3)ccc12 (stereo not drawn) | inconclusive: 28.2 µM [inhibitor, partial curve] |
| Nc1ccc(OC(=O)Nc2ccc(O)cc2)cc1 | active: 17.8 µM |
| CC1(C)CC(=O)C2=C(C1)Nc1cc3c(cc1C2c1ccc(F)cc1)OCO3 (stereo not drawn) | inconclusive: 22.4 µM [inhibitor, partial curve] |
| C=CCc1c(C)nc2c(C)cccc2c1SC(=N)N | inactive |
| CC(=O)c1ccc(N2CCN(C(=O)C3CCCN(S(=O)(=O)c4cnc[nH]4)C3)CC2)cc1 (stereo not drawn) | inconclusive: 39.8 µM [inhibitor, single point] |
| CC1=C(C(=O)Nc2ccccc2)C(c2ccncc2)C(C#N)=C(SCC(=O)NC(C)C)N1 (stereo not drawn) | inactive |
| Cc1ccc(S(=O)(=O)NC(C(=O)Oc2ccc3c(C(F)(F)F)cc(=O)oc3c2)c2ccccc2)cc1 (stereo not drawn) | active: 31.6 µM |
| O=C(O)C(=O)/C(=C\c1cccc2ccccc12)c1ccc2ccccc2n1 | inconclusive: 17.8 µM [inhibitor, partial curve] |
| COc1ccc(C2C3=C(CC(C)(C)CC3=O)N(CCN3CCOCC3)C3=C2C(=O)CC(C)(C)C3)cc1 | inconclusive: 28.2 µM [inhibitor, partial curve] |
| COc1ccc(C(=O)/C=C/Nc2c(C)n(C)n(-c3ccccc3)c2=O)c(OC)c1 | inconclusive: 12.6 µM [inhibitor, partial curve] |
| Brc1ccc(OCCCN2CCOCC2)cc1 | inactive |
| C=CCn1cnc2c(c1=O)c1nc3ccccc3nc1n2/N=C/c1ccccn1 | inconclusive: 17.8 µM [inhibitor, partial curve] |
| Cc1ccc(/C=C/C2=NN(Cc3ccccc3Cl)C(=O)CC2)cc1 | inconclusive: 28.2 µM [inhibitor, single point] |
| Cc1c(C(=O)NNC(=S)Nc2cccc(Cl)c2)nnn1-c1ccccc1 | inactive |
| O=C(CC(Nc1ccccc1)C(=O)O)c1ccccc1 (stereo not drawn) | inactive |
| CCCS(=O)(=O)Nc1c(C(=O)O)[nH]c2ccc(OC)cc12 | inconclusive: 31.6 µM [inhibitor, partial curve] |
| c1cncc(-c2noc(CC3CCCCC3)n2)c1 | inactive |
| COc1ccc2cc(C(=O)NCc3ccco3)c(=Nc3ccc(C(=O)O)cc3)oc2c1 | inconclusive: 39.8 µM [inhibitor, single point] |
| COc1ccc(CNc2nc(-c3ccc(C(=O)N(C)C)cc3)nc3ccccc23)c(OC)c1 | inconclusive: 35.5 µM [inhibitor, single point] |
| COc1ccc(C2N(c3ccc(C)cc3)CCN2c2ccc(C)cc2)cc1O | inactive |
| COc1cccc(C=Nc2ccccc2C(=O)Nc2nccs2)c1OC | inconclusive: 28.2 µM [inhibitor, partial curve] |
| COC(=O)CCC(=O)Nc1cccc([N+](=O)[O-])c1 | inactive |
| CCCNC(=O)COC(=O)c1cc(-c2ccc(OC)cc2)nc2ccccc12 | inconclusive: 35.5 µM [inhibitor, partial curve] |
| CC(C)c1ccc(/C=C(\c2nc3ccccc3[nH]2)S(=O)(=O)c2ccccc2)cc1 | inactive |

| Structure (SMILES) | Potency |
| --- | --- |
| COc1ccc2[nH]c3c(=O)n(Cc4ccncc4)cnc3c2c1 | inconclusive: 31.6 µM [inhibitor, partial curve] |
| CCCNC(=O)N1CCN(Cc2ccco2)CC1 | inactive |
| O=C(Nc1cc(Oc2ccc(Cl)cc2)cc([N+](=O)[O-])c1)c1ccco1 | inconclusive: 39.8 µM [inhibitor, single point] |
| CCOc1ccc(CNC(=O)c2cc3oc4ccccc4c3n2C)cc1 | inconclusive: 35.5 µM [inhibitor, single point] |
| CCN(CC)C(=O)C(C(=O)c1cccc([N+](=O)[O-])c1)n1cc(Cl)ccc1=O (stereo not drawn) | inactive |
| C/C(CCCO)=N/Nc1ccc([N+](=O)[O-])cc1[N+](=O)[O-] | inactive |
| S=c1[nH]nc(CSCCOc2ccc(Cl)cc2Cl)o1 | inconclusive: 20 µM [inhibitor, partial curve] |
| Cc1nc2nc[nH]c2cc1Br | inactive |
| CCOCCCNC(=S)N1CCCN(c2nc3cc(C)cc(C)c3cc2C#N)CC1 | inconclusive: 20 µM [inhibitor, partial curve] |
| COc1cc(C2NC(=S)NC(C)=C2C(=O)Nc2ccc(C)cc2)ccc1O (stereo not drawn) | inconclusive: 31.6 µM [inhibitor, single point] |
| COc1cc(/C=C/c2cc(C(F)(F)F)[nH]c(=O)n2)cc(OC)c1OC | inconclusive: 31.6 µM [inhibitor, partial curve] |
| CN(C)/C=C/C(=O)c1ccc(Br)s1 | inconclusive: 15.8 µM [inhibitor, partial curve, poor fit] |
| Cc1oc2c(CN3CCCC3)c(O)ccc2c(=O)c1-c1ccc(Cl)cc1 | inconclusive: 31.6 µM [inhibitor, partial curve] |
| O=C(O)C1CSC(CCc2ccccc2)N1 (stereo not drawn) | inconclusive: 39.8 µM [inhibitor, single point] |
| O=C(/C=C/c1ccc(OCCCF)cc1)Nc1ccnc(-c2cccnc2)n1 | inconclusive: 28.2 µM [inhibitor, partial curve] |
| Cc1c2cnn(CC(=O)O)c(=O)c2c(C)n1Cc1ccccc1 | inconclusive: 28.2 µM [inhibitor, single point] |
| O=C(Cc1cccs1)Nc1nnc(-c2ccncc2)s1 | inconclusive: 28.2 µM [inhibitor, partial curve] |
| Cn1c(=O)c2c(nc(SCCN3CCCCC3)n2Cc2ccc(Cl)cc2)n(C)c1=O | inactive |
| CCOc1c2ccc(C(=O)NCc3ccc(C(F)(F)F)cc3C(F)(F)F)cc2nn1C | inconclusive: 28.2 µM [inhibitor, partial curve] |
| Cc1ccc(-c2csc(N(Cc3ccco3)C(=O)c3cccs3)n2)cc1 | inconclusive: 39.8 µM [inhibitor, single point] |
| COc1ccc(NC(=O)CSC2CC(=O)N(c3ccc4c(c3)OCCO4)C2=O)cc1 (stereo not drawn) | inactive |
| Cc1cc(=O)[nH]c(SCc2cn3ccccc3n2)n1 | inconclusive: 22.4 µM [inhibitor, partial curve] |
| O=C(CC1N=C2c3ccccc3N=C(SCc3ccccc3Cl)N2C1=O)NCc1ccco1 (stereo not drawn) | inconclusive: 25.1 µM [inhibitor, partial curve] |
